For the assay, the system named is NCI-H322M lung. Kind of assay: NCI tumour cell line growth inhibition, 48 h.

The structures appear in SMILES notation.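 A five-concentration, 48-hour dose response in 96-well plates underlies each endpoint, interpolated linearly between surrounding concentrations. Abbreviation: GI50, concentration required for 50% inhibition of growth. TGI: concentration producing complete growth inhibition.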

In the case of `Cc1cc2nc3c4cc(Cl)ccc4n(CC(=S)NCCN(C)C)c3nc2cc1C`, the GI50 was 4.04 µM and the TGI stood at 15.5 µM.

Values taken from PubChem BioAssay (NCI).
